{"source": "the supplement of paper PMC4166925", "note": "± gives the standard deviation of the averaged measurements. In all, about 33,000 sequences were measured (“E-score (dimensionless, -0.5 to 0.5)”: median about -0.046, highest 2% from about 0.36 on). The list shows a part of the results."}
{"test_system": "T1, SpTbr T-box DNA-binding domain (GST fusion)", "T1 sequence": "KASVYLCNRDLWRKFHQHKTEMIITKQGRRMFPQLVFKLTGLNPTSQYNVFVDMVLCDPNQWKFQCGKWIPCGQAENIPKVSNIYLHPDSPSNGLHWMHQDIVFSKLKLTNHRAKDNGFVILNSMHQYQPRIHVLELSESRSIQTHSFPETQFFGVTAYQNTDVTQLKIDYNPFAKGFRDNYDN", "test": "PBM E-score of 8-mer (E-score (dimensionless, -0.5 to 0.5)); Tbr is Tbrain of the sea star Patiria miniata (Pm) or the sea urchin Strongylocentrotus purpuratus (Sp); higher = stronger binding preference; most listed sequences are background and not binding sites", "details": "the construct has about 5 more residues each side", "summary_of_the_method": "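Primer extension turned Universal Agilent oligonucleotide arrays double-stranded. They were incubated with 200 nM protein in PBS (pH 7.5); the protein was a GST-fused Tbr T-box DNA-binding domain expressed in BL21 E. coli at 20 °C and purified on glutathione. Every ungapped 8-mer was scored from the scanned, quantified probe intensities, and the Universal PBM Analysis Suite gave each an enrichment E-score averaged over duplicate arrays.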"}
{"sequence": "CAGTGACA", "PBM E-score of 8-mer": "0.329 ± 0.0062"}
{"sequence": "ATATAAAT", "PBM E-score of 8-mer": "-0.117 ± 0.023"}
{"sequence": "AACCCAAA", "PBM E-score of 8-mer": "-0.1126 ± 0.001"}
{"sequence": "ACTAGCTG", "PBM E-score of 8-mer": "0.0199 ± 0.043"}
{"sequence": "CCCGCGAC", "PBM E-score of 8-mer": "0.0686 ± 0.01"}
{"sequence": "AGTTAGCG", "PBM E-score of 8-mer": "0.304 ± 0.0085"}
{"sequence": "CACTTAGA", "PBM E-score of 8-mer": "0.176 ± 0.055"}
{"sequence": "GTAACAGA", "PBM E-score of 8-mer": "0.136 ± 0.03"}
{"sequence": "CGTTACAA", "PBM E-score of 8-mer": "-0.0936 ± 0.079"}
{"sequence": "GGACTCAA", "PBM E-score of 8-mer": "-0.166 ± 0.021"}
{"sequence": "ATAACGAG", "PBM E-score of 8-mer": "-0.141 ± 0.013"}
{"sequence": "GGAACGCA", "PBM E-score of 8-mer": "-0.145 ± 0.064"}
{"sequence": "CTCGTAAA", "PBM E-score of 8-mer": "-0.0792 ± 0.064"}
{"sequence": "CATGTTTC", "PBM E-score of 8-mer": "-0.111 ± 0.014"}
{"sequence": "TGATTGAA", "PBM E-score of 8-mer": "0.00549 ± 0.057"}
{"sequence": "AGGCCCGA", "PBM E-score of 8-mer": "-0.0946 ± 0.054"}
{"sequence": "ATTTATCA", "PBM E-score of 8-mer": "-0.0292 ± 0.12"}
{"sequence": "ACGAAAGA", "PBM E-score of 8-mer": "-0.0823 ± 0.0021"}
{"sequence": "ATGACGCG", "PBM E-score of 8-mer": "0.145 ± 0.033"}
{"sequence": "CTCACTTA", "PBM E-score of 8-mer": "0.306 ± 0.033"}
{"sequence": "CGCCCTAG", "PBM E-score of 8-mer": "-0.151 ± 0.0084"}
{"sequence": "AACTGTCC", "PBM E-score of 8-mer": "-0.0916 ± 0.0089"}
{"sequence": "CACGTGGA", "PBM E-score of 8-mer": "0.132 ± 0.0022"}
{"sequence": "TTGAACAA", "PBM E-score of 8-mer": "-0.066 ± 0.026"}
{"sequence": "AAAGTGTA", "PBM E-score of 8-mer": "0.112 ± 0.073"}
{"sequence": "TCGCTTAA", "PBM E-score of 8-mer": "-0.00898 ± 0.0036"}
{"sequence": "AGACCGTA", "PBM E-score of 8-mer": "-0.166 ± 0.1"}
{"sequence": "CCCGGCAG", "PBM E-score of 8-mer": "-0.0933 ± 0.0064"}
{"sequence": "CAAGGATC", "PBM E-score of 8-mer": "-0.0265 ± 0.013"}
{"sequence": "ACTAGATC", "PBM E-score of 8-mer": "-0.264 ± 0.048"}
{"sequence": "ATGCGTGG", "PBM E-score of 8-mer": "0.169 ± 0.069"}
{"sequence": "ACCTAACG", "PBM E-score of 8-mer": "0.11 ± 0.09"}
{"sequence": "ATCCGTGA", "PBM E-score of 8-mer": "0.156 ± 0.016"}
{"sequence": "ATCTAAGG", "PBM E-score of 8-mer": "-0.138 ± 0.047"}
{"sequence": "GACCTCGA", "PBM E-score of 8-mer": "-0.0589 ± 0.014"}
{"sequence": "ACCGAGGT", "PBM E-score of 8-mer": "0.144 ± 0.00077"}
{"sequence": "CGAATAAC", "PBM E-score of 8-mer": "0.107 ± 0.0037"}
{"sequence": "GTGTTCAA", "PBM E-score of 8-mer": "0.152 ± 0.0097"}
{"sequence": "GAGCCAGC", "PBM E-score of 8-mer": "0.0706 ± 0.066"}
{"sequence": "CCTCACCG", "PBM E-score of 8-mer": "-0.111 ± 0.069"}
{"sequence": "CCCCCGAC", "PBM E-score of 8-mer": "-0.00895 ± 0.078"}
{"sequence": "AAAGCGGC", "PBM E-score of 8-mer": "-0.125 ± 0.0093"}
{"sequence": "CTCTCTTA", "PBM E-score of 8-mer": "-0.187 ± 0.034"}
{"sequence": "CGAAGTTA", "PBM E-score of 8-mer": "-0.166 ± 0.024"}
{"sequence": "ACTTTAAA", "PBM E-score of 8-mer": "-0.0537 ± 0.1"}
{"sequence": "AGACGTGG", "PBM E-score of 8-mer": "-0.125 ± 0.039"}
{"sequence": "AGTGCTCA", "PBM E-score of 8-mer": "0.0883 ± 0.015"}
{"sequence": "CAAGCTCA", "PBM E-score of 8-mer": "-0.0177 ± 0.053"}
{"sequence": "AGCGGTGG", "PBM E-score of 8-mer": "-0.058 ± 0.12"}
{"sequence": "CGATTATA", "PBM E-score of 8-mer": "-0.00292 ± 0.028"}
{"sequence": "AAGTCCTC", "PBM E-score of 8-mer": "-0.169 ± 0.0025"}
{"sequence": "AATCCTGT", "PBM E-score of 8-mer": "0.0714 ± 0.014"}
{"sequence": "CTTATGAC", "PBM E-score of 8-mer": "-0.00355 ± 0.022"}
{"sequence": "GAATTCGA", "PBM E-score of 8-mer": "-0.193 ± 0.0066"}
{"sequence": "CGTTATTC", "PBM E-score of 8-mer": "0.0891 ± 0.048"}
{"sequence": "AGCATGTA", "PBM E-score of 8-mer": "0.00605 ± 0.00077"}
{"sequence": "GCTGAGAA", "PBM E-score of 8-mer": "0.26 ± 0.048"}
{"sequence": "GGTATACC", "PBM E-score of 8-mer": "-0.0427 ± 0.062"}
{"sequence": "CACCGAGC", "PBM E-score of 8-mer": "-0.107 ± 0.096"}
{"sequence": "GGGGACCA", "PBM E-score of 8-mer": "-0.267 ± 0.088"}
{"sequence": "AGTGTTCC", "PBM E-score of 8-mer": "0.0182 ± 0.013"}
{"sequence": "CCATGCAC", "PBM E-score of 8-mer": "-0.0815 ± 0.021"}
{"sequence": "ACTTTTCC", "PBM E-score of 8-mer": "-0.0249 ± 0.025"}
{"sequence": "ATAGAGAG", "PBM E-score of 8-mer": "-0.0654 ± 0.037"}
{"sequence": "TGTTGCAA", "PBM E-score of 8-mer": "0.114 ± 0.017"}
{"sequence": "TATGAGCA", "PBM E-score of 8-mer": "-0.1736 ± 0.0016"}
{"sequence": "ACGGTGAC", "PBM E-score of 8-mer": "0.284 ± 0.0089"}
{"sequence": "ATCGACAC", "PBM E-score of 8-mer": "0.389 ± 0.013"}
{"sequence": "CTTCACAA", "PBM E-score of 8-mer": "0.32 ± 0.0058"}
{"sequence": "ACAATGAG", "PBM E-score of 8-mer": "-0.00655 ± 0.0029"}
{"sequence": "CCACGCTC", "PBM E-score of 8-mer": "0.0778 ± 0.052"}
{"sequence": "GCGAAGTA", "PBM E-score of 8-mer": "0.31 ± 0.035"}
{"sequence": "ACCGGGGC", "PBM E-score of 8-mer": "-0.0204 ± 0.065"}
{"sequence": "CACGGTGG", "PBM E-score of 8-mer": "0.0119 ± 0.061"}
{"sequence": "AAGCGGAC", "PBM E-score of 8-mer": "-0.128 ± 0.03"}
{"sequence": "ATTCGCTG", "PBM E-score of 8-mer": "-0.13 ± 0.03"}
{"sequence": "AACCGCTT", "PBM E-score of 8-mer": "-0.0779 ± 0.0043"}
{"sequence": "ATCGGGAG", "PBM E-score of 8-mer": "-0.07849 ± 0.00052"}
{"sequence": "GACCGCGC", "PBM E-score of 8-mer": "0.121 ± 0.057"}
{"sequence": "CGAGAAAC", "PBM E-score of 8-mer": "0.0745 ± 0.086"}
{"sequence": "ACCAATCA", "PBM E-score of 8-mer": "-0.0511 ± 0.01"}
{"sequence": "GTCTTTCA", "PBM E-score of 8-mer": "-0.0162 ± 0.053"}
{"sequence": "ACAGACAT", "PBM E-score of 8-mer": "0.0887 ± 0.022"}
{"sequence": "ACGTTTGC", "PBM E-score of 8-mer": "0.0266 ± 0.034"}
{"sequence": "TACCATGA", "PBM E-score of 8-mer": "-0.164 ± 0.056"}
{"sequence": "AGGGCCCG", "PBM E-score of 8-mer": "-0.185 ± 0.032"}
